In PubChem BioAssay AID624202 (National Center for Advancing Translational Sciences (NCATS), 2012):
The whole screen tested about 380,000 compounds, of which about 4,000 (1.1%) were called active. Calls come from the whole dose curve; as a rule, active = well fitted activation curve with a large enough effect; inconclusive = small, poorly fitted or top-dose-only effect; inactive = no such curve, though single readings can be large or run the other way. The inconclusive results got no clear call from the source. A potency beside an inconclusive call is a rough fit, not a confirmed value.

assay: qHTS Assay to Identify Small Molecule Activators of BRCA1 Expression; details: MCF7-BRCA1-FFLuc reporter, luminescence, 48 h; activation: at 46.1 µM (top of the series), scaled: vehicle 0%, 10 µM genistein 100% unless noted; note: nearly all actives have a fitted effect of over 80% in size
Excerpt: Functionally, BRCA1 has been implicated in a wide array of cellular activities, including DNA damage repair, cell-cycle checkpoint control, growth inhibition, apoptosis, transcriptional regulation, chromatin remodeling, protein ubiquitylation, and mammary stem cell self-renewal and differentiation. Reduction in BRCA1 levels is associated with an increase in tumor growth and resistance to anti-estrogenic agents, such as tamoxifen, while an increase in BRCA1 expression leads to cell growth arrest and apoptosis. […] The frequent loss of BRCA1 expression in invasive breast cancers in the absence of somatic mutation has been attributed to numerous mechanisms, including hypermethylation of the BRCA1 promoter, exaggerated ubiquitylation of BRCA1 protein, and improper intracellular localization. […]
5microl of MCF7-BRCA1-FFLuc cell suspension (400 cells/microl in phenol-red free MEM) are dispensed into Greiner white solid bottom 1536-well assay plates, yielding a final well density of 2000 cells/well. […] The NCGC in-house luciferase substrate reagent, Buglite, is then added (2.5microl) and plates incubated for 15 minutes, before being transferred to a ViewLux high-throughput CCD imager (PerkinElmer) wherein single end-point measurements of luminescence are acquired using a clear filter. […]
Potency is the fitted concentration of half-maximal effect; tags give direction and shape of the fitted curve.

| Compound | Potency | activation |
| --- | --- | --- |
| CC(C)(C)c1ccc2c(c1)OC(C(=O)N/N=C\c1ccc(-c3cccc(C(=O)O)c3)o1)CO2 (configuration not stated) | inconclusive: 11.2 µM [activator, partial curve, poor fit] | – |
| Cc1c(CC(=O)O)c(=O)oc2c(C)c3occ(-c4ccc(Br)cc4)c3cc12 | – | inconclusive: -37.5% [activator] |
